Source: PMC5155141
These are yes or no findings as the source states them, for the method shown. Binding seen in cells or lysates may run through a third protein. Some binding calls cover weakened binding; strength is not graded here. For part of these data: Sequences can lack the tags named with a protein.

Sequences of proteins named here, by UniProt entry; tags and fusion partners are left off.
UniProt Q96P20: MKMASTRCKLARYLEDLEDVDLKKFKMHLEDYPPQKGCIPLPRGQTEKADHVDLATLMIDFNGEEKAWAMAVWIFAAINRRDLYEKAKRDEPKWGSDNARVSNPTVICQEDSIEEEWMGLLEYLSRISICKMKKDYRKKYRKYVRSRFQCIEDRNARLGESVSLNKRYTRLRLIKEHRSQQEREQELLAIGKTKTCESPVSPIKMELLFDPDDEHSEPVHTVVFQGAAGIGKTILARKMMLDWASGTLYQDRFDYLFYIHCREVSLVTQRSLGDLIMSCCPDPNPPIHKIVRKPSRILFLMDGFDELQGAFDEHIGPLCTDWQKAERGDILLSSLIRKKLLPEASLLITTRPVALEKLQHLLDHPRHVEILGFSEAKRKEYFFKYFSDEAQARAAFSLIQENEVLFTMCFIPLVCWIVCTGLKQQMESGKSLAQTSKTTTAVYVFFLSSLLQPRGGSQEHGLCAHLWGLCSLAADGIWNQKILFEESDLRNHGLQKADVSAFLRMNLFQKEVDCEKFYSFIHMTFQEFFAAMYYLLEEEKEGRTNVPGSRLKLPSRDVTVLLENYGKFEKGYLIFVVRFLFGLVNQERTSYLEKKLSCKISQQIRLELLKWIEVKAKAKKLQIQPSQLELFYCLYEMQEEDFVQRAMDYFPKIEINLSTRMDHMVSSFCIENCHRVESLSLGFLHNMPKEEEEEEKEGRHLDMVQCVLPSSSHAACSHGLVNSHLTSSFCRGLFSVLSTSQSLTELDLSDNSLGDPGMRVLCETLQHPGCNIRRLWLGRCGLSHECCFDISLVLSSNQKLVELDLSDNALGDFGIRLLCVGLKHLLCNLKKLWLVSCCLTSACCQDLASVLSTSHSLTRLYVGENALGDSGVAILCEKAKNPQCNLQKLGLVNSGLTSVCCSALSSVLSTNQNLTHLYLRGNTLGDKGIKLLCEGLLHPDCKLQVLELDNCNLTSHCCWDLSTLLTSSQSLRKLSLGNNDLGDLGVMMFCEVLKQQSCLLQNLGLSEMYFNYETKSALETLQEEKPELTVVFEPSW
UniProt Q9ULZ3: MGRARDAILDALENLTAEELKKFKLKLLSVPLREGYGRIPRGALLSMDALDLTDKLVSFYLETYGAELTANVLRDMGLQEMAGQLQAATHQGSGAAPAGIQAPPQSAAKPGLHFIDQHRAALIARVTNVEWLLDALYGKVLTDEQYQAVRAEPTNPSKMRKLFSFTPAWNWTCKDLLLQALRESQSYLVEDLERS
UniProt P29466: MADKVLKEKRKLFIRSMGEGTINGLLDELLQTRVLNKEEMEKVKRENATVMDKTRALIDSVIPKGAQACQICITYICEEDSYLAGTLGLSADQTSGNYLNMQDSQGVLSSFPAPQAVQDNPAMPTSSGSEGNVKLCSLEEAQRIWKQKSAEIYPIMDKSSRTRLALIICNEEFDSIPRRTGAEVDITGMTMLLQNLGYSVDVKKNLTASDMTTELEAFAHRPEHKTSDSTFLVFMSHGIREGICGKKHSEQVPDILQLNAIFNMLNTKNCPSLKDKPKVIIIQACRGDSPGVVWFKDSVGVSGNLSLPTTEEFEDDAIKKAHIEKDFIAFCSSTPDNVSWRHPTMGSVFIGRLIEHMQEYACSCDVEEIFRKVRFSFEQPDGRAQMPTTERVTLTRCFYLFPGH

How the values were obtained:
[1] = biological target: T1, endogenous TRIM31 (THP-1 cells) (human (endogenous in THP-1)) (UniProt Q9BZY9); assay: co-IP; endogenous proteins from THP-1 cells; IP buffer 1.0% Nonidet P 40, 50 mM Tris-HCl pH 7.4, 50 mM EDTA, 150 mM NaCl; protein G agarose
T1 sequence: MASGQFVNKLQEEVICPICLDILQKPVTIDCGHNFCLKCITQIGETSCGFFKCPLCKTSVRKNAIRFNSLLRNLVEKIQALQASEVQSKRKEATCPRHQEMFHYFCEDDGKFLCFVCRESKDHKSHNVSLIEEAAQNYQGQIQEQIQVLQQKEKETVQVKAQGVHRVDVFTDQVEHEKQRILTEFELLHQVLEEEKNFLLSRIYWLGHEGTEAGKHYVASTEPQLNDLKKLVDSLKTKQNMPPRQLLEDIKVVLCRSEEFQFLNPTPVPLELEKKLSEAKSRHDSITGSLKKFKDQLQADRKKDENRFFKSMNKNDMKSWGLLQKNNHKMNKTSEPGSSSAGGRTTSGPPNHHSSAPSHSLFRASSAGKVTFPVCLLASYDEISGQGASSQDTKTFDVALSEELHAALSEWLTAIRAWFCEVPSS

Flag-TRIM31 (human) = biological target: T2, Flag-TRIM31 (human) (UniProt Q9BZY9); assay: co-IP; HEK293T cells transfected with Flag-TRIM31 (or its mutants) and Myc-tagged partners (or NLRP3 mutants); lysates immunoprecipitated with anti-Flag antibody (Fig. 3f,h) and immunoblotted; IP buffer 1.0% Nonidet P 40, 50 mM Tris-HCl pH 7.4, 50 mM EDTA, 150 mM NaCl
T2 sequence: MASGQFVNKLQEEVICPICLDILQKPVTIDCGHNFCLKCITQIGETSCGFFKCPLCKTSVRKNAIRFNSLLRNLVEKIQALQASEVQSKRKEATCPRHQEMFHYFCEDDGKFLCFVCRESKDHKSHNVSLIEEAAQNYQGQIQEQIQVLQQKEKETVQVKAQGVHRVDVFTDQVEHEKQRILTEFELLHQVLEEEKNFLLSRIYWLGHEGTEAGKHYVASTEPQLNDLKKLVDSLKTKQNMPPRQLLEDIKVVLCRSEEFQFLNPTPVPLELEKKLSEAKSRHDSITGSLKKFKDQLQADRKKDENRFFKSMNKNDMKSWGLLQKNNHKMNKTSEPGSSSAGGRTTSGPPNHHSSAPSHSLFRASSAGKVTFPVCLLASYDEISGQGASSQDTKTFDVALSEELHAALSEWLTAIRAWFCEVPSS

[2] = biological target: T3, Flag-tagged TRIM31 (in vitro translated) (human) (UniProt Q9BZY9); assay: co-IP; in vitro binding assay: in vitro translated Flag-tagged TRIM31 and NLRP3 mixed together, IP with Flag antibody, immunoblot with NLRP3 antibody
T3 sequence: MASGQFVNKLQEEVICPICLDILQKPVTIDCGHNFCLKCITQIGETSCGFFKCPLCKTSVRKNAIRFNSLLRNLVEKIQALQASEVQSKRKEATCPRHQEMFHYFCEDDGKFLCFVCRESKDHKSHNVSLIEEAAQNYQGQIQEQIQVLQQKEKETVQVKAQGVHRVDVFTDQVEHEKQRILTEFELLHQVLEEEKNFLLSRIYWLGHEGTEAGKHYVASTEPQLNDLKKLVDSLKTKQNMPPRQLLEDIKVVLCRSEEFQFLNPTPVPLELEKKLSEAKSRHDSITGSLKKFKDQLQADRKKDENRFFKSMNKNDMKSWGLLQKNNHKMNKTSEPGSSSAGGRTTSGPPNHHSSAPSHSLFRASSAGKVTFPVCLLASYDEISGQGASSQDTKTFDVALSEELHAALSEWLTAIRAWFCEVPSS

[3] = biological target: T4, endogenous TRIM31 (mouse peritoneal macrophages) (mouse (endogenous in peritoneal macrophages)), Q8R0K2; assay: co-IP; endogenous proteins from mouse peritoneal macrophages, resting and stimulated with LPS for indicated times; IP buffer 1.0% Nonidet P 40, 50 mM Tris-HCl pH 7.4, 50 mM EDTA, 150 mM NaCl; protein G agarose; details: remark: other sources report otherwise
T4 chain: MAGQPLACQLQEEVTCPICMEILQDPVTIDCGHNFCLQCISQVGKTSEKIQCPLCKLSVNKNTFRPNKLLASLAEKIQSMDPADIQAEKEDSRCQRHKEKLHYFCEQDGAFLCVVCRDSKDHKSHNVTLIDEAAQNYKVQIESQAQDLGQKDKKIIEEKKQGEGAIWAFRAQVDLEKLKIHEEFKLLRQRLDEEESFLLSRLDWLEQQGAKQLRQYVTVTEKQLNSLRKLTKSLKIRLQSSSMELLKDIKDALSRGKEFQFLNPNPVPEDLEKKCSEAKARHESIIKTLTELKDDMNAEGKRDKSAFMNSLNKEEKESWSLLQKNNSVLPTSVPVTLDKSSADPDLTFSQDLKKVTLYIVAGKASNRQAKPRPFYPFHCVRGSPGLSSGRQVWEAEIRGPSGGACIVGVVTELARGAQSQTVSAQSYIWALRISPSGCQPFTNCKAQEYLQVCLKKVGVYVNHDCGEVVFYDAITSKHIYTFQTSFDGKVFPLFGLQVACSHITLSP

In the case of “endogenous NLRP3 (THP-1 cells) (from UniProt Q96P20 1-1036)”, the binding [1] is reported as “binds”.

Myc-NLRP3 (from UniProt Q96P20 1-1036) was tested, and the binding (Flag-TRIM31 (human)) was “binds”.

With Myc-ASC (from UniProt Q9ULZ3 1-195) the binding (Flag-TRIM31 (human)) was “no binding”.

With “NLRP3 (in vitro translated) (from UniProt Q96P20 1-1036)” the binding [2] was “binds”.

In the case of “Myc-Caspase-1 (from UniProt P29466 1-404)”, the binding (Flag-TRIM31 (human)) is reported as “no binding”.

B1: endogenous NLRP3 (mouse peritoneal macrophages), Q8R4B8 1-1033 (protein)
chain: MTSVRCKLAQYLEDLEDVDLKKFKMHLEDYPPEKGCIPVPRGQMEKADHLDLATLMIDFNGEEKAWAMAVWIFAAINRRDLWEKAKKDQPEWNDTCTSHSSMVCQEDSLEEEWMGLLGYLSRISICKKKKDYCKMYRRHVRSRFYSIKDRNARLGESVDLNSRYTQLQLVKEHPSKQEREHELLTIGRTKMRDSPMSSLKLELLFEPEDGHSEPVHTVVFQGAAGIGKTILARKIMLDWALGKLFKDKFDYLFFIHCREVSLRTPRSLADLIVSCWPDPNPPVCKILRKPSRILFLMDGFDELQGAFDEHIGEVCTDWQKAVRGDILLSSLIRKKLLPKASLLITTRPVALEKLQHLLDHPRHVEILGFSEAKRKEYFFKYFSNELQAREAFRLIQENEVLFTMCFIPLVCWIVCTGLKQQMETGKSLAQTSKTTTAVYVFFLSSLLQSRGGIEEHLFSDYLQGLCSLAADGIWNQKILFEECDLRKHGLQKTDVSAFLRMNVFQKEVDCERFYSFSHMTFQEFFAAMYYLLEEEAEGETVRKGPGGCSDLLNRDVKVLLENYGKFEKGYLIFVVRFLFGLVNQERTSYLEKKLSCKISQQVRLELLKWIEVKAKAKKLQWQPSQLELFYCLYEMQEEDFVQSAMDHFPKIEINLSTRMDHVVSSFCIKNCHRVKTLSLGFFHNSPKEEEEERRGGRPLDQVQCVFPDTHVACSSRLVNCCLTSSFCRGLFSSLSTNRSLTELDLSDNTLGDPGMRVLCEALQHPGCNIQRLWLGRCGLSHQCCFDISSVLSSSQKLVELDLSDNALGDFGIRLLCVGLKHLLCNLQKLWLVSCCLTSACCQDLALVLSSNHSLTRLYIGENALGDSGVQVLCEKMKDPQCNLQKLGLVNSGLTSICCSALTSVLKTNQNFTHLYLRSNALGDTGLRLLCEGLLHPDCKLQMLELDNCSLTSHSCWNLSTILTHNHSLRKLNLGNNDLGDLCVVTLCEVLKQQGCLLQSLQLGEMYLNRETKRALEALQEEKPELTIVFEISW
B1 was tested, and the binding [3] was “binds”.
